Hit rate of the full screen: of about 50,000 compounds, about 800 (1.6%) showed an effect of 50% or more. The list shows a part of the results.

This test deals with Bcl-2-like protein 10 (Homo sapiens) (UniProt Q9HD36). The experiment in a line: Phenotype converters, Bcl-B/TR3 peptide binding displacement, primary biochemical FP (AID 1240).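 Note: 0% = Bcl-B with tracer peptide and DMSO and 100% = tracer peptide lacking Bcl-B.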 Particulars: GST-Bcl-B / FITC-TR3 peptide fluorescence polarization; stronger effect = higher value; compound at 3.75 mg/L.
Chain of UniProt Q9HD36 (Q9HD36 whole entry, looked up): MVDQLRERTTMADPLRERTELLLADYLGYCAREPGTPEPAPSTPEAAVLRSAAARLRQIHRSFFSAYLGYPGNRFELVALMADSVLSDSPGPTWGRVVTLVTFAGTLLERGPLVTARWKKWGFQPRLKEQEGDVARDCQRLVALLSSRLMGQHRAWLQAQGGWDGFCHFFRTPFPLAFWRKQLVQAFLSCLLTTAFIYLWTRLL
As to `CCOC(=O)c1sc(NC(=O)c2c(-c3ccccc3Cl)noc2C)c(C(=O)OCC)c1C`, the displacement was 36.2%.

Turning to `CC1(C)CC(=O)c2cnc(NC(=O)Cc3ccc(Cl)cc3)nc2C1`, the displacement is -0.2%. `Cc1ccc(NC(=O)C(=O)NCCN2CCN(S(=O)(=O)c3ccc4ccccc4c3)CC2)cc1`: the displacement was determined as 7.5%. For the molecule `CCCOc1ccc(C=C2C(=O)N(C)C(=O)N(C)C2=O)cc1OC`, the displacement amounted to 1.3%. Turning to `CCN(CC)c1ccc(/C=C2/SC(=S)N(CN3CCCCC3)C2=O)cc1`, the displacement is -22.2%.

`CCOc1cc(/C=c2/sc3nc4ccccc4n3c2=O)cc(I)c1OCC`: the displacement amounted to 77.3%.

On to `CCN(CC(O)Cn1c2ccccc2c2ccccc21)S(=O)(=O)c1ccc(C)cc1` (stereo unspecified), for which the displacement is -0.9%. In the case of `COc1ccc(N2C(=O)CC(N3CCC(O)CC3)C2=O)cc1` (stereo unspecified), the displacement was -0.8%.

In the case of `CC1(C)CC(=O)C2=C(C1)OC1=C(C(=O)CC(C)(C)C1)C2c1ccc(-c2ccc3c(c2)COC3=O)o1`, the displacement is 2.3%. As to `COC(=O)Cn1cnc(=O)c(C#N)c1C`, the displacement stood at 2%.

As for `O=S(=O)(O)c1cc(-n2nc3ccc4c(S(=O)(=O)O)cccc4c3n2)ccc1/C=C/c1ccccc1`, the displacement amounted to 17.1%.

On to `Cc1ccc(-c2nnc3s/c(=C\c4ccccc4)c(=O)n23)cc1`, for which the displacement is -23.9%. Consider `CCOC(=O)c1c(NC(=O)CC(c2ccccc2)c2ccccc2)sc(C(N)=O)c1C`, for which the displacement was 0.4%. In the case of `CC(O)C#CCN1C(C)CCCC1C` (stereo unspecified), the displacement worked out at 1.8%. As for `CC(=O)C1C(=O)c2ccccc2/C1=N/N=C/c1ccc([N+](=O)[O-])cc1` (stereo unspecified), the displacement was -13.6%. For the molecule `CC(=O)c1c(NCCc2ccccc2)nc(=O)n(-c2ccccc2)c1C`, the displacement is -3.1%.

On to `COc1ccc(CC(=O)Nc2ccc(-c3nc4ccccc4[nH]3)cc2)cc1OC`, for which the displacement was -10.2%. For the molecule `CCOC(=O)c1c(N2CCOCC2)c2ccccc2[nH]c1=O`, the displacement is -10.7%. Turning to `COc1ccc(C2/C(=C(/O)c3ccc(C)cc3)C(=O)C(=O)N2CCCn2ccnc2)cc1OC` (stereo unspecified), the displacement was -3.4%. For `N#CC1=C(SCC(=O)Nc2ccccc2)NC(=O)C(C#N)C12CCCC2` (stereo unspecified) the value was 6.8%; for `O=C(c1c(F)cccc1F)N1CCN(c2cc(N3CCOCC3)c(F)cc2[N+](=O)[O-])CC1`, -12.7%. As for `O=[N+]([O-])c1ccc(/C=N/Nc2c(Cl)cc(Cl)cc2Cl)cc1`, the displacement worked out at 6.7%. Turning to `COc1cc(C2Nc3ccccc3NC3=C2C(=O)CC(c2ccc(Cl)cc2)C3)cc(Br)c1O` (stereo unspecified), the displacement is 10.8%. With `COc1ccccc1C1/C(=C(\O)c2ccc(C)cc2)C(=O)C(=O)N1CCCC(=O)O` (stereo unspecified), the displacement is -3.5%. With `COc1cc(OC)c(C2NC(=O)NC(C)=C2C(=O)Nc2ccccc2C)cc1OC` (stereo unspecified), the displacement was determined as 13.3%.

Regarding `CCOCCOC(=O)C1=C(C)NC2=C(C(=O)CC(C)(C)C2)C1c1cccc(O)c1` (stereo unspecified), the displacement worked out at 7.3%. For `Cn1/c(=N/N=C/c2cccc(C(F)(F)F)c2)sc2ccccc21`, the displacement was -9.9%. As for `COc1cc2c(cc1NCc1ccc3c(c1)OCO3)oc1ccccc12`, the displacement is -11%.

Regarding `CCOc1cc(OCC)cc(C(=O)Nc2cc(-c3nc4ccccc4s3)ccc2Cl)c1`, the displacement turned out to be 18.2%. For `Cc1cccc(-c2n[nH]c(=S)n2-c2ccccc2)c1` the value was 14.4%; for `N#Cc1ccccc1C(C(N)=O)(c1ccccc1)c1ccccc1C#N`, -0.9%. As to `Cc1ccccc1S(=O)(=O)Nc1cc(Br)c2oc3c(c2c1)C(=O)CCC3`, the displacement was 2.5%. Take `O=C(NCc1ccccn1)c1cc(-c2ccccc2Cl)nc2ccccc12`: the displacement is 1.4%. For `O=C1/C(=C/c2ccc(-c3ccccc3[N+](=O)[O-])o2)SC(=S)N1c1cccc(Cl)c1`, the displacement amounted to 73.5%.

With `O=C(/C=C/c1ccc(F)cc1)N1CCN(c2cccc(Cl)c2)CC1`, the displacement is 7.5%. Then `O=C1C2C3C=CC(C4CC34)C2C(=O)N1Cc1ccccc1` (stereo unspecified), with -5%; and `COc1ccc(C(=O)/C=C/Nc2ccc(Br)c(C)c2)cc1`, with 14.5%; and `CC(=O)Nc1ccc(N2C(=O)c3cccc4c(C(=O)c5ccccc5)ccc(c34)C2=O)cc1`, with 7.4%. As to `COC(=O)C1=C(C)NC(=O)CC1c1ccc(C(F)(F)F)cc1` (stereo unspecified), the displacement was found to be 5.8%. Turning to `O=C(c1ccccc1)c1ccccc1C(=O)N1CCCCC1`, the displacement came out at 2.2%.

With `O=[N+]([O-])c1ccc(/C=N/n2cnnc2SCc2ccccc2)cc1`, the displacement is -4.5%. With `N#CC1=C(N)Oc2c(ccc3ccccc23)C1c1ccc(Cl)cc1Cl` (stereo unspecified), the displacement is -3.5%. In the case of `Cc1ccc(S(=O)(=O)NCCNS(C)(=O)=O)cc1[N+](=O)[O-]`, the displacement is 9.4%. Consider `CN1C(=O)/C(=C/c2ccc(-c3ccc(F)cc3)o2)SC1=S`, for which the displacement amounted to 8.1%. Consider `COc1ccc(/C=C(/C(=O)c2c(C)cc(C)[nH]c2=O)c2ccccc2)cc1`, for which the displacement was 7.1%. As to `CCc1nn(-c2ccccc2)c(N)c1C`, the displacement turned out to be 10.5%.

Take `O=C(NC1=NCCS1)C1CC2CCC1C2` (stereo unspecified): the displacement amounted to 11.1%.

`CCOP(=O)(OCC)C(Nc1cccc(C(F)(F)F)c1)c1cc(Cl)cc(Cl)c1OC` (stereo unspecified): the displacement is -4.5%. For `COc1cccc(C2NC(=O)NC(C)=C2C(=O)Nc2ccccc2C)c1` (stereo unspecified), the displacement is 4.3%. In the case of `N#CCCn1cc(/C=C2\N=C(c3ccccc3)OC2=O)c(-c2ccc(Cl)cc2)n1`, the displacement was -7.5%. In the case of `Cc1ccc(-c2csc(NC(=O)C3CC=CCC3C(=O)O)c2C(=O)OC(C)C)cc1` (stereo unspecified), the displacement was -3.1%. For `CCC(C)(C)C1CCC2(CC1)NC(CO)(CO)CO2` (stereo unspecified) the value was -6.9%. Then `CCOC(=O)N1CCN(C(=O)C(C)N2C(=O)c3ccccc3C2=O)CC1` (stereo unspecified), with -1.9%; and `O=C(Nc1cccc([N+](=O)[O-])c1)c1cccc(S(=O)(=O)N(CCO)CCO)c1`, with -13.4%. In the case of `COc1ccc(Cl)cc1N(CC(=O)NCCSc1ccc(C)cc1)S(=O)(=O)c1ccccc1`, the displacement turned out to be 2.8%. As to `C/C(=C\C(=O)OC1CC(C)(C)NC(C)(C)C1)NC1CC(C)(C)NC(C)(C)C1`, the displacement came to 5.9%. For the molecule `C=CCc1cccc2cc(C(=O)NNC(=O)CC#N)c(=O)oc12`, the displacement was 20.6%. Then `O=S(=O)(Nc1cccc(F)c1)c1ccc2ccccc2c1`, with -0.8%; and `C=CCNC(=O)C(=O)NCc1ccc(C)cc1`, with 12.1%; and `COc1ccc(CN2CCN(S(=O)(=O)c3ccc(C)cc3)CC2)c(OC)c1`, with -0.7%. Take `CC1CCN(C(=O)C(C(C)C)N2C(=O)c3ccccc3C2=O)CC1` (stereo unspecified): the displacement was 1.7%. For `CCOC(=O)c1c(-c2ccccc2)csc1NC(=O)c1ccc(N2C(=O)CCC2=O)cc1` the value was -6.7%; for `CC(C(=O)c1ccccc1)C(=O)c1ccccc1`, 4.3%; for `O=C(/C=C/c1ccc(-c2ccccc2[N+](=O)[O-])o1)C12CC3CC(CC(C3)C1)C2`, 10.5%. Regarding `O=C1NC(=S)N/C1=C/c1cc2c(cc1Cl)OCO2`, the displacement was 8.2%.

As to `Cc1ccc(C(C)C)c(OCc2nnc(NC(=O)Nc3ccc(Cl)cc3)s2)c1`, the displacement amounted to 5.5%. As for `O=C(O)COc1ccccc1/C=N/N1CCN(C(c2ccccc2)c2ccccc2)CC1`, the displacement was -9.4%. For `Cc1nc2cc(-c3cccc(Cl)c3)[nH]n2c(=O)c1C` the value was 3.4%. Regarding `COc1ccc(CN=Cc2c(O)n(-c3cc(OC)ccc3OC)c(=O)[nH]c2=O)cc1`, the displacement is -0.3%. Turning to `COc1ccc(OC)c(-n2c(O)c(C=Nc3ccccc3C)c(=O)[nH]c2=O)c1`, the displacement was found to be 4.2%. For `Cc1ccc(NC(=O)c2ccccc2[N+](=O)[O-])cc1`, the displacement is 8.3%. Take `O=C(/C=C/c1ccc(F)cc1)N1CCN(CCN2C(=O)c3cccc4cccc(c34)C2=O)CC1`: the displacement was found to be 8%. For the molecule `CCOC(=O)/C(C#N)=C1/N(C)c2ccccc2N1N`, the displacement came to 1.4%.

On to `Cc1ccccc1OCC(=O)Nc1ccccc1-c1ccccc1`, for which the displacement is -7.8%. Then `CCC(CO)Nc1cc(Cl)ccc1[N+](=O)[O-]` (stereo unspecified), with 12.1%; and `O=C1C(C=NCCN2CCN(C(=S)Nc3ccccc3)CC2)=C(O)c2ccccc21`, with -3.4%; and `COc1nc(-c2ccccc2)cc(-c2ccc(OC)c(OC)c2)n1`, with -5.1%.

With `COc1ccc2c(c1OC)C(=O)OC2Nc1ccc(I)cc1` (stereo unspecified), the displacement was -0.2%. In the case of `NC(=O)C1CCN(C(=O)COc2ccccc2Cl)CC1`, the displacement was -0.3%. On to `Cc1ccc(N2C(=O)/C(=C/c3ccc(C(=O)O)cc3)SC2=S)cc1C`, for which the displacement is 11.8%. `O=C(NCCc1cccc(Cl)c1)c1ccccc1Cl`: the displacement was -6.7%.

`CCCc1noc(-c2ccc(C(C)(C)C)cc2)n1`: the displacement is 14.8%. For `CCOC(=O)c1c(-c2ccccc2)oc2ccc(O)c(CN3CCCC(C)C3)c12` (stereo unspecified), the displacement came out at 11%. As for `O=S(NCc1ccco1)C12CC3CC(CC(C3)C1)C2` (stereo unspecified), the displacement was -8.4%.

For the molecule `O=C(COc1ccc([N+](=O)[O-])cc1)NNC(=O)c1ccccc1Cl`, the displacement turned out to be 11.6%. Consider `O=c1cc(O)nc(SCc2ccc(Cl)cc2)[nH]1`, for which the displacement amounted to 8.1%. For `O=C1c2ccccc2C(=O)c2c1cccc2N1CCN(C/C=C/c2ccccc2)CC1` the value was 17.5%; for `C=CCc1ccccc1OCCOc1ccc(/C=C2/SC(=S)N(C)C2=O)cc1`, 11.4%. `O=C(c1ccc2ccccc2c1)N1CCCC1`: the displacement is -5.7%.

For `CCOC(=O)c1c(-c2ccccc2)oc2cc(Br)c(OC(=O)c3ccco3)cc12`, the displacement came to 8.8%. As for `Nc1nnc(COc2ccccc2)s1`, the displacement was 0.6%. Regarding `O=C(Nc1ccc(-c2nc3ncccc3o2)cc1)c1ccc(-c2ccc(Cl)cc2Cl)o1`, the displacement stood at 28.3%. On to `CCN(CC)S(=O)(=O)/N=C/c1ccc(Cl)c(Cl)c1`, for which the displacement stood at 3%. Then `Cc1ccc2oc(-c3cc(NC(=O)/C=C/c4ccccc4)ccc3O)nc2c1`, with 10.6%.

As for `CN1C(=O)C(c2ccccc2)C(=O)c2ccccc21` (stereo unspecified), the displacement was -5.3%. For the molecule `CC(=O)N1CCN(c2ccc(NC(=O)c3cccs3)cc2)CC1`, the displacement amounted to 4.3%. For the molecule `COc1cc(/C=C2/C=C(c3ccc(C(C)(C)C)cc3)OC2=O)c([N+](=O)[O-])cc1OC`, the displacement was -49.6%. In the case of `COc1cc(-c2ccc(NC(=O)c3ccc(Cl)cc3Cl)c(OC)c2)ccc1NC(=O)c1ccc(Cl)cc1Cl`, the displacement amounted to 12.4%.

Take `Cc1cc(Cl)ccc1OCCCC(=O)N1CCN(c2cccc(C)c2C)CC1`: the displacement is -8.6%.

For `CC(=O)CC(=O)Nc1ccc(Cl)cn1`, the displacement was 0.3%. Consider `CS(=O)(=O)N(CC(=O)N(Cc1ccccc1)Cc1ccccc1)c1ccc(Cl)cc1`, for which the displacement stood at 10.6%. As for `COC(=O)c1c(N)c(C#N)c(C)n1Cc1ccccc1`, the displacement was -4.7%. For the molecule `O=C1CCCc2c1[nH]c1c(Br)cccc21`, the displacement was -10.1%.

Consider `CCOc1ccc(/C=N/N2CCN(Cc3ccccc3Cl)CC2)cc1OC`, for which the displacement stood at 11.2%. Take `COc1cccc(C(=O)OCC(=O)c2ccc(Cl)cc2)c1`: the displacement is -1%. Take `COc1cc2c(cc1C)/C(=N\OC(=O)c1cc(OC)c(OC)c(OC)c1)CCC2`: the displacement worked out at 14.3%.

Source of the values: PubChem BioAssay AID1240 (Sanford-Burnham Center for Chemical Genomics, 2008).
